# Measured values reported in PubChem BioAssay (Tox21).
# Where “and” joins values, the source holds several entries; their conditions need not be identical. Identical values can stand only once. This list was built around the results that the source calls inconclusive (neither active nor inactive); the mix of calls is not that of the screen. For some of these results: Potencies of inconclusive entries are doubtful fits and often do not repeat. Where a structure was tested more than once in an assay, its records may differ in their call. Calls of active or inactive are those of the source. Unless noted, calls come from the whole dose curve; as a rule, active = well fitted curve in the direction sought with a large enough effect in the repeat runs; inconclusive = weak or mixed curves; inactive = no such curve, though single readings can be large; an effect the other way counts as inactive or inconclusive.
# Columns and labels:
# [1] = qHTS assay to identify small molecule HDAC inhibitors - cell viability counter screen (AID 1259365); note: nearly all actives have a fitted effect of over 50% in size; note: potency is the fitted concentration of half-maximal effect
# Summary of the method: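 Counter screen in wild-type HCT-116 cells: compounds dissolved in DMSO are pin-transferred onto overnight-plated cells and left 2hr at 37C. ATP-based CellTiter-Glo luminescence then measures viable cells.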
# [2] = target: Estrogen receptor beta (Homo sapiens) (UniProt Q92731); test: qHTS assay to identify small molecule antagonists of the estrogen receptor beta (ER-beta) signaling pathway (AID 1259378; active = well fitted inhibition curve with a large enough effect in the signal ratio in the repeat runs, not every such curve was filed as active; inconclusive = weak or mixed curves, or effect the other way; inactive = no such curve, though single readings can be large or run the other way; the % refers to the signal ratio; note: potency is the fitted concentration of half-maximal effect; for activity, negative = inhibition: % is set by controls: 0 for no effect and ±100 for the full control effect); details: ER-beta-UAS-bla HEK293T, beta-lactamase FRET ratio, 16 h; activity, negative = inhibition: at 92.4 µM (top of the series) unless noted
# Summary of the method: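 ER-beta-UAS-bla HEK293T cells in 2% charcoal-stripped FBS medium treated with compound plus 1nM final 17-beta-estradiol for 16 hr at 37C. Beta-lactamase reporter read by FRET substrate fluorescence after 2 hours at room temperature.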
# [3] = target: Thyrotropin receptor (Homo sapiens) (UniProt P16473); test: qHTS assay to identify small molecule antagonists of the thyroid stimulating hormone receptor (TSHR) signaling pathway (AID 1259385; calls by dose curve; note: nearly all actives have a fitted effect of over 20% in size; note: potency is the fitted concentration of half-maximal effect; for activity change, negative = inhibition: % is set by controls: 0 for no effect and ±100 for the full control effect); details: TSHR-HEK293 cAMP HTRF, TSH-stimulated antagonist mode; activity change, negative = inhibition: at 92.4 µM (top of the series) unless noted
# Summary of the method: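 TSHR-HEK293 cells (800/well) plated 18 h, then compounds with Ro20-1724 and TSH at 1.5 ng/mL final, 30 min at room temperature. cAMP quantified by HTRF (cAMP-d2/anti-cAMP-cryptate, 1 h); 15 concentrations in triplicate.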
# [4] = qHTS assay to identify small molecule agonists of the sonic hedgehog signaling (Shh) pathway - cell viability counter screen (AID 1259366); note: nearly all actives have a fitted effect of over 50% in size; note: potency is the fitted concentration of half-maximal effect
# Summary of the method: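 Cells are plated at 2,000 per well and left 4hr at 37C, 5% CO2 before compound addition. After 23hr of treatment, CellTiter-Fluor reagent is added for 1hr at 37C and fluorescence is measured.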
# [5] = qHTS assay to identify small molecule antagonists of the sonic hedgehog signaling (Shh) pathway - cell viability counter screen (AID 1259367); note: potency is the fitted concentration of half-maximal effect; nearly all actives have a fitted effect of over 55% in size
# Summary of the method: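 Fluorescence read-out (CellTiter-Fluor, 1 hr at 37C) taken after 23 hr compound treatment of 3T3 Gli1-Luc cells stimulated with conditioned medium. Cells were seeded at 2,000 per well and pre-incubated 4 hr.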
# [6] = qHTS assay to identify small molecule antagonists of the sonic hedgehog signaling (Shh) pathway (AID 1259369; calls by dose curve; note: potency is the fitted concentration of half-maximal effect; nearly all actives have a fitted effect of over 45% in size)
# Summary of the method: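 Gli1 transcriptional reporter (firefly Luc) in NIH/3T3 background, conditioned-medium activated. 24hr exposure, luminescence endpoint.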
# [7] = qHTS assay to identify small molecule agonists of the androgen receptor (AR) signaling pathway in the presence of an antagonist - cell viability counter screen (AID 1259379); note: potency is the fitted concentration of half-maximal effect; nearly all actives have a fitted effect of over 25% in size
# Summary of the method: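 Counter screen for cell viability run in parallel with the AR agonist-mode luciferase assay. MDA-kb2 cells were co-treated with nilutamide (3.0uM final) and compounds, then incubated 16 hr at 37C, and CellTiter-Fluor fluorescence was measured.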
# [8] = qHTS assay to identify small molecule agonists of the estrogen receptor beta (ER-beta) signaling pathway - cell viability counter screen (AID 1259380); note: potency is the fitted concentration of half-maximal effect; nearly all actives have a fitted effect of over 30% in size
# Summary of the method: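 In this qHTS counter screen, HEK293T cells carrying an ER-beta/UAS beta-lactamase reporter, grown in 2% charcoal-stripped FBS, received compound for 16 hr; ATP-based CellTiter-Glo luminescence was then read after 30 min at room temperature.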
# [9] = qHTS assay to identify small molecule antagonists of the estrogen receptor beta (ER-beta) signaling pathway - cell viability counter screen (AID 1259382); note: nearly all actives have a fitted effect of over 55% in size; note: potency is the fitted concentration of half-maximal effect
# Summary of the method: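 HEK293T ER-beta-UAS-bla, 2% charcoal-stripped FBS; compounds + 1nM E2 16 hr 37C; CellTiter-Glo luminescence, 30 min RT.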
# [10] = qHTS assay to identify small molecule agonists of the estrogen receptor alpha (ER-alpha) signaling pathway in the presence of an antagonist - cell viability counter screen (AID 1259386);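 note: potency is the fitted concentration of half-maximal effect; cells exposed to compounds for 22 h at 37 °C before the viability read; nearly all actives have a fitted effect of over 30% in size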
# Summary of the method: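 Steps: 5-day stripped-FBS culture; seed and incubate 24hr; add ICI-182,780 (10.0nM final); pin 15-point compound titration; incubate 22hr at 37C; add CellTiter-Fluor at 21hr; read fluorescence.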
# [11] = qHTS assay to identify small molecule HDAC inhibitors (AID 1259364); note: potency is the fitted concentration of half-maximal effect;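 note: wild-type HCT-116 cells with endogenous class I/II HDAC activity; nearly all actives have a fitted effect of over 45% in size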; for activity change, negative = inhibition: top concentration of the series differs between compounds; % is set by controls: 0 for no effect and ±100 for the full control effect
# Summary of the method: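 After a 2 hr compound incubation (37C, 5% CO2), HCT-116 cells seeded at 1,500/well the day before received HDAC-Glo reagent; signal read as luminescence after 30 min at room temperature.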
# [12] = qHTS assay to identify small molecule agonists or antagonists of the thyroid stimulating hormone receptor (TSHR) signaling pathway - wild type cell line counter screen (AID 1259384; calls by dose curve; note: % is set by controls: 0 for no effect and ±100 for the full control effect); details: HEK293 wild type, cAMP HTRF counter-screen; cAMP activity change: at 92.4 µM (top of the series), stronger effect = higher value unless noted
# Summary of the method: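 Wild-type Hek293 cells, 800/well, 18 h at 37C, then compound with Ro20-1724 for 30 min RT. cAMP by HTRF (cAMP-d2/anti-cAMP cryptate), 1 h RT, fluorescence read. 15 concentrations, triplicates.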
# [13] = target: Estrogen receptor beta (Homo sapiens) (UniProt Q92731); test: qHTS assay to identify small molecule agonists of the estrogen receptor beta (ER-beta) signaling pathway (AID 1259377; active = well fitted activation curve with a large enough effect in the signal ratio in the repeat runs, not every such curve was filed as active; inconclusive = weak or mixed curves, or effect the other way; the % refers to the signal ratio; note: potency is the fitted concentration of half-maximal effect); details: ER-beta-UAS-bla HEK293T, beta-lactamase FRET ratio, 16 h; activation: at 92.4 µM (top of the series) unless noted
# Summary of the method: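 Agonist mode cell assay in GripTite HEK293T cells expressing an ER-beta fusion that drives beta-lactamase from an Upstream Activator Sequence; 16 hr compound exposure at 37C, then 2 h LiveBLAzer B/G FRET substrate at room temperature, fluorescence read-out.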
# [14] = target: Androgen receptor (Homo sapiens) (UniProt P10275); test: qHTS assay to identify small molecule agonists of the androgen receptor (AR) signaling pathway in the presence of an antagonist (AID 1259381; calls by dose curve; note: potency is the fitted concentration of half-maximal effect; nearly all actives have a fitted effect of over 15% in size)
# Summary of the method: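 AR antagonist background: nilutamide 3.0uM final. Cell line: MDA-kb2, MMTV-driven luciferase, responsive to both AR and GR. Exposure 16hr, 37C, no CO2; ONE-Glo luminescence.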
# Tags give direction and shape of the fitted curve or compound fluorescence and quenching.
# Sequence of UniProt Q92731 (Q92731 whole entry, looked up, the tested form may be a part): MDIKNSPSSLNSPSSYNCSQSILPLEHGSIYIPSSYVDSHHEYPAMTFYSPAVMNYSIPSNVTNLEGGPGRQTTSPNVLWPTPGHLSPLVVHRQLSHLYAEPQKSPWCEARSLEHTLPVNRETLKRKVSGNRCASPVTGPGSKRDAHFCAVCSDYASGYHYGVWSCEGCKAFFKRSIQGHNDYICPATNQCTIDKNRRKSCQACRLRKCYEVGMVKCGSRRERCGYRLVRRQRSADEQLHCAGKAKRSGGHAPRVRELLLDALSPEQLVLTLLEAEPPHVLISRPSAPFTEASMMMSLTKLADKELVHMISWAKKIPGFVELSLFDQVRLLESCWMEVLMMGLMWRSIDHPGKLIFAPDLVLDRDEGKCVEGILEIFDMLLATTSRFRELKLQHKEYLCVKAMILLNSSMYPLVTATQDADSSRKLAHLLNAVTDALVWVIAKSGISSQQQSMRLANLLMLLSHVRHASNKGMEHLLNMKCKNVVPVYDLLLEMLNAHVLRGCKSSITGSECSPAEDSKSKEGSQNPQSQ
# Sequence of UniProt P16473 (P16473 whole entry, looked up): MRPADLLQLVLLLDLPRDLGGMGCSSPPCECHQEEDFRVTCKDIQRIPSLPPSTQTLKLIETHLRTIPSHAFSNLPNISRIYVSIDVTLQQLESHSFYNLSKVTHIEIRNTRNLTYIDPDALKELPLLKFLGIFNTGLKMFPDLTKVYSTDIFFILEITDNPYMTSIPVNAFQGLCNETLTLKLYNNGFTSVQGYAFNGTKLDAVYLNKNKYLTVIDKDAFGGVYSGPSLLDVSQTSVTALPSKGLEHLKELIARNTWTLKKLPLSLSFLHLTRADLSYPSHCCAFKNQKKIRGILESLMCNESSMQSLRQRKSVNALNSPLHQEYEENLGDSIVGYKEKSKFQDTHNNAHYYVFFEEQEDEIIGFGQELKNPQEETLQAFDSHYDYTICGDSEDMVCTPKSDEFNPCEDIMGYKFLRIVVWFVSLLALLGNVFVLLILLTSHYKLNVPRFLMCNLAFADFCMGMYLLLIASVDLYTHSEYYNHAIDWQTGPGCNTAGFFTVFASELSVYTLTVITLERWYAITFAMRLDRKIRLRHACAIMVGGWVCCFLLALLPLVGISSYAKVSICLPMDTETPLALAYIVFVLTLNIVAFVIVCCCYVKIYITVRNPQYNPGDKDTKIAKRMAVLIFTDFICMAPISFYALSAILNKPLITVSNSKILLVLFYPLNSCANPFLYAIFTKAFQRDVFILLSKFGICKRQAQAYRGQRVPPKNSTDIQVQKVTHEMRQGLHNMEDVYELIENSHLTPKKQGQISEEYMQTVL
# Sequence of UniProt P10275 (P10275 whole entry, looked up): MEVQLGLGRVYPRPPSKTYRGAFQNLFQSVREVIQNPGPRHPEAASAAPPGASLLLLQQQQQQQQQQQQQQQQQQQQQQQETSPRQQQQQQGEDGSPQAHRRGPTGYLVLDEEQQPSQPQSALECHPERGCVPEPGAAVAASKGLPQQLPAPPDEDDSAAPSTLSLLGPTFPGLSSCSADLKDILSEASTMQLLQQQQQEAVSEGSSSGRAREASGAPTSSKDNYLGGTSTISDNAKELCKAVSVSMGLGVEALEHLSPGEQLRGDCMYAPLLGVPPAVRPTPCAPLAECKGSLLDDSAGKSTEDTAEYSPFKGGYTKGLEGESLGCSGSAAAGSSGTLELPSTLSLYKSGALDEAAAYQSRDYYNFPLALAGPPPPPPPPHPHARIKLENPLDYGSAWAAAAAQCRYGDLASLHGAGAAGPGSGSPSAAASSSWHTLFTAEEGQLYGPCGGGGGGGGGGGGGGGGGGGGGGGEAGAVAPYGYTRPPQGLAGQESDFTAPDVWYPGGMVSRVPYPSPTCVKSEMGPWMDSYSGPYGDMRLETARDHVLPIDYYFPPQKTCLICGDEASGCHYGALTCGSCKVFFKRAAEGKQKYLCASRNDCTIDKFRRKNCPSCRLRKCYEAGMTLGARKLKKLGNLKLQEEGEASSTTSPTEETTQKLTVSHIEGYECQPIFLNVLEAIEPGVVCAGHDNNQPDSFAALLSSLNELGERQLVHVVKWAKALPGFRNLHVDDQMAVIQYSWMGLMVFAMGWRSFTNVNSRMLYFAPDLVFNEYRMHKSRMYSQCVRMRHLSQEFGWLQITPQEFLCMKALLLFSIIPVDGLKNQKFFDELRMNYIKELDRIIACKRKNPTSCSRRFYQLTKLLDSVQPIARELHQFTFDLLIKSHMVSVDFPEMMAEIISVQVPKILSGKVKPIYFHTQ
structure (smiles),measurement,setting,value
Nc1ccc(N)c2ccccc12,Potency,[1],"inconclusive: 43.2 µM [cytotoxic, partial curve]"
same,Potency,[2],"inconclusive: 54.4 µM [rising, partial curve]"
same,Potency,[3],"inconclusive: 76.9 µM [falling, single point]"
COC(=O)C1=C(C)NC(C)=C(C(=O)OCC(C)C)C1c1ccccc1[N+](=O)[O-] (stereo not drawn),Potency,[1],"inconclusive: 54.5 µM [rising, partial curve, poor fit]"
same,Potency,[4],"active: 30.6 µM and inconclusive: 29.8 µM [cytotoxic, partial curve]"
same,Potency,[5],"inconclusive: 23.7 µM [cytotoxic, partial curve]"
same,Potency,[6],"active: 12.2 µM and inconclusive: 26.6 µM [inhibitor, partial curve, poor fit]"
same,Potency,[7],"inconclusive: 30.6 µM [cytotoxic, partial curve]"
same,Potency,[8],"inconclusive: 68.6 µM [cytotoxic, single point] and inconclusive: 15 µM [cytotoxic, full curve]"
same,Potency,[9],"inconclusive: 68.6 µM [cytotoxic, single point]"
same,Potency,[10],active: 54.5 µM
O=C(O)c1ccccc1C(c1ccc(O)cc1)c1ccc(O)cc1,Potency,[1],inactive
same,Potency,[2],inactive
same,Potency,[9],inactive
same,"activity change, negative = inhibition",[3],inconclusive: -13.9%
CCC(C)(C)c1ccc(CC(C)CN2C[C@@H](C)O[C@@H](C)C2)cc1 (stereo partly drawn),Potency,[11],inactive
same,Potency,[6],"inconclusive: 26.6 µM [inhibitor, partial curve]"
same,Potency,[12],inactive
same,Potency,[3],"inconclusive: 29.8 µM [falling, partial curve]"
CCCSS/C(CCO)=C(\C)N(C=O)Cc1cnc(C)nc1N,Potency,[4],"inconclusive: 33.5 µM [cytotoxic, single point]"
Nc1ccc(Nc2ccccc2)cc1,Potency,[1],"inconclusive: 60.4 µM [cytotoxic, partial curve, poor fit]"
same,Potency,[4],"inconclusive: 60.4 µM [cytotoxic] and active: 61.1 µM and inconclusive: 61.1 µM [cytotoxic, partial curve]"
same,Potency,[5],"inconclusive: 30.3 µM [cytotoxic, partial curve] and active: 48.6 µM and inconclusive: 54.5 µM [cytotoxic, partial curve]"
same,Potency,[6],active: 4.8 µM and active: 1.72 µM and active: 4.33 µM
same,Potency,[7],inconclusive: 68.6 µM [cytotoxic]
same,Potency,[8],"inconclusive: 27 µM [cytotoxic, full curve] and inconclusive: 12.2 µM [cytotoxic, full curve] and active: 24.3 µM"
same,Potency,[9],"inconclusive: 24.3 µM [cytotoxic, full curve, poor fit]"
same,Potency,[3],"inconclusive: 54.5 µM [falling, partial curve]"
same,"activity change, negative = inhibition",[3],inconclusive: 0.082% and inconclusive: -2.21%
same,Potency,[10],"inconclusive: 13.5 µM [cytotoxic, full curve] and active: 30.6 µM and active: 19.3 µM"
CCCCC(CC)COC(=O)c1ccc(N(C)C)cc1 (stereo not drawn),Potency,[1],inactive
same,Potency,[4],inactive
same,Potency,[6],"inconclusive: 0.245 µM [inhibitor, single point]"
same,"activity, negative = inhibition",[2],inconclusive: 28%
O=C(NO)c1ccccc1,Potency,[11],"inconclusive: 35.7 µM [inhibitor, partial curve]"
same,Potency,[5],"inconclusive: 58.2 µM [cytotoxic, partial curve]"
same,Potency,[13],inconclusive: 23.2 µM
same,Potency,[2],inconclusive: 13 µM
same,Potency,[8],inconclusive: 18.4 µM [cytotoxic]
same,Potency,[9],inconclusive: 25.3 µM [cytotoxic]
same,Potency,[3],"inconclusive: 10.4 µM [rising, partial curve, poor fit]"
CC1=C(/C=C/C(C)=C/C=C/C(C)=C/C=O)C(C)(C)CCC1,Potency,[1],"inconclusive: 68.2 µM [cytotoxic, single point]"
same,Potency,[6],active: 15.3 µM
same,Potency,[13],"inconclusive: 68.2 µM [cytotoxic, single point]"
same,Potency,[2],"inconclusive: 76.5 µM [cytotoxic, single point]"
same,Potency,[7],active: 60.8 µM
same,Potency,[8],active: 24.2 µM
same,Potency,[9],active: 30.5 µM
same,Potency,[3],"inconclusive: 7.65 µM [rising, partial curve]"
Nc1nc(N)c2nc(-c3ccccc3)c(N)nc2n1,Potency,[11],"inconclusive: 24.6 µM [inhibitor, partial curve] and inconclusive: 24.3 µM [inhibitor, partial curve]"
same,Potency,[6],"inconclusive: 11.9 µM [inhibitor, full curve, poor fit]"
same,Potency,[13],"inconclusive: 34.8 µM [fluorescent, partial curve] and inconclusive: 27.3 µM [activator, partial curve] and inconclusive: 26.6 µM [activator]"
same,Potency,[2],"inconclusive: 55.1 µM [fluorescent, partial curve] and inconclusive: 19.3 µM [activator] and inconclusive: 21.1 µM [activator, partial curve]"
same,Potency,[7],"inconclusive: 77.8 µM [cytotoxic] and inconclusive: 77 µM [cytotoxic, single point]"
same,Potency,[8],"active: 69.4 µM and inconclusive: 68.6 µM [cytotoxic, single point]"
same,Potency,[14],inconclusive: 27.6 µM
same,Potency,[9],"inconclusive: 69.4 µM [cytotoxic, single point]"
same,Potency,[10],inconclusive: 77.8 µM [cytotoxic]
